Experimental data from patent US20250011379A1 (VERTEX PHARMACEUTICALS, published 2025).

B1: Const. No. 15: HSA-GGSSGG-hCFI; S499K (enzyme)
chain: [not shown - about 600 residues]GGSSGGKVTYTSQEDLVEKKCLAKKYTHLSCDKVFCQPWQRCIEGTCVCKLPYQCPKNGTAVCATNRRSFPTYCQQKSLECLHPGTKFLNNGTCTAEGKFSVSLKHGNTDSEGIVEVKLVDQDKTMFICKSSWSMREANVACLDLGFQQGADTQRRFKLSDLSINSTECLHVHCRGLETSLAECTFTKRRTMGYQDFADVVCYTQKADSPMDDFFQCVNGKYISQMKACDGINDCGDQSDELCCKACQGKGFHCKSGVCIPSQYQCNGEVDCITGEDEVGCAGFASVTQEETEILTADMDAERRRIKSLLPKLSCGVKNRMHIRRKRIVGGKRAQLGDLPWQVAIKDASGITCGGIYIGGCWILTAAHCLRASKTHRYQIWTTVVDWIHPDLKRIVIEYVDRIIFHENYNAGTYQNDIALIEMKKDGNKKDCELPRSIPACVPWSPYLFQPNDTCIVSGWGREKDNERVFSLQWGEVKLISNCSKFYGNRFYEKEMECAGTYDGKIDACKGDSGGPLVCMDANNVTYVWGVVSWGENCGKPEFPGVYTKVANYFDWISYHVGRPFISQYNV
B2: Const. No. 21: HSA-GGSSGG-hCFI; K423R (enzyme)
chain: [not shown - about 600 residues]GGSSGGKVTYTSQEDLVEKKCLAKKYTHLSCDKVFCQPWQRCIEGTCVCKLPYQCPKNGTAVCATNRRSFPTYCQQKSLECLHPGTKFLNNGTCTAEGKFSVSLKHGNTDSEGIVEVKLVDQDKTMFICKSSWSMREANVACLDLGFQQGADTQRRFKLSDLSINSTECLHVHCRGLETSLAECTFTKRRTMGYQDFADVVCYTQKADSPMDDFFQCVNGKYISQMKACDGINDCGDQSDELCCKACQGKGFHCKSGVCIPSQYQCNGEVDCITGEDEVGCAGFASVTQEETEILTADMDAERRRIKSLLPKLSCGVKNRMHIRRKRIVGGKRAQLGDLPWQVAIKDASGITCGGIYIGGCWILTAAHCLRASKTHRYQIWTTVVDWIHPDLKRIVIEYVDRIIFHENYNAGTYQNDIALIEMKKDGNRKDCELPRSIPACVPWSPYLFQPNDTCIVSGWGREKDNERVFSLQWGEVKLISNCSKFYGNRFYEKEMECAGTYDGSIDACKGDSGGPLVCMDANNVTYVWGVVSWGENCGKPEFPGVYTKVANYFDWISYHVGRPFISQYNV
B3: Const. No. 23: HSA-GGSSGG-hCFI; R62E (enzyme)
chain: [not shown - about 600 residues]GGSSGGKVTYTSQEDLVEKKCLAKKYTHLSCDKVFCQPWQRCIEGTCVCKLPYQCPKNGTAVCATNRESFPTYCQQKSLECLHPGTKFLNNGTCTAEGKFSVSLKHGNTDSEGIVEVKLVDQDKTMFICKSSWSMREANVACLDLGFQQGADTQRRFKLSDLSINSTECLHVHCRGLETSLAECTFTKRRTMGYQDFADVVCYTQKADSPMDDFFQCVNGKYISQMKACDGINDCGDQSDELCCKACQGKGFHCKSGVCIPSQYQCNGEVDCITGEDEVGCAGFASVTQEETEILTADMDAERRRIKSLLPKLSCGVKNRMHIRRKRIVGGKRAQLGDLPWQVAIKDASGITCGGIYIGGCWILTAAHCLRASKTHRYQIWTTVVDWIHPDLKRIVIEYVDRIIFHENYNAGTYQNDIALIEMKKDGNKKDCELPRSIPACVPWSPYLFQPNDTCIVSGWGREKDNERVFSLQWGEVKLISNCSKFYGNRFYEKEMECAGTYDGSIDACKGDSGGPLVCMDANNVTYVWGVVSWGENCGKPEFPGVYTKVANYFDWISYHVGRPFISQYNV
B4: Const. No. 26: HSA-GGSSGG-hCFI; E401K (enzyme)
chain: [not shown - about 600 residues]GGSSGGKVTYTSQEDLVEKKCLAKKYTHLSCDKVFCQPWQRCIEGTCVCKLPYQCPKNGTAVCATNRRSFPTYCQQKSLECLHPGTKFLNNGTCTAEGKFSVSLKHGNTDSEGIVEVKLVDQDKTMFICKSSWSMREANVACLDLGFQQGADTQRRFKLSDLSINSTECLHVHCRGLETSLAECTFTKRRTMGYQDFADVVCYTQKADSPMDDFFQCVNGKYISQMKACDGINDCGDQSDELCCKACQGKGFHCKSGVCIPSQYQCNGEVDCITGEDEVGCAGFASVTQEETEILTADMDAERRRIKSLLPKLSCGVKNRMHIRRKRIVGGKRAQLGDLPWQVAIKDASGITCGGIYIGGCWILTAAHCLRASKTHRYQIWTTVVDWIHPDLKRIVIEYVDRIIFHKNYNAGTYQNDIALIEMKKDGNKKDCELPRSIPACVPWSPYLFQPNDTCIVSGWGREKDNERVFSLQWGEVKLISNCSKFYGNRFYEKEMECAGTYDGSIDACKGDSGGPLVCMDANNVTYVWGVVSWGENCGKPEFPGVYTKVANYFDWISYHVGRPFISQYNV
B5: Const. No. 27: HSA-GGSSGG-hCFI; E401R (enzyme)
chain: [not shown - about 600 residues]GGSSGGKVTYTSQEDLVEKKCLAKKYTHLSCDKVFCQPWQRCIEGTCVCKLPYQCPKNGTAVCATNRRSFPTYCQQKSLECLHPGTKFLNNGTCTAEGKFSVSLKHGNTDSEGIVEVKLVDQDKTMFICKSSWSMREANVACLDLGFQQGADTQRRFKLSDLSINSTECLHVHCRGLETSLAECTFTKRRTMGYQDFADVVCYTQKADSPMDDFFQCVNGKYISQMKACDGINDCGDQSDELCCKACQGKGFHCKSGVCIPSQYQCNGEVDCITGEDEVGCAGFASVTQEETEILTADMDAERRRIKSLLPKLSCGVKNRMHIRRKRIVGGKRAQLGDLPWQVAIKDASGITCGGIYIGGCWILTAAHCLRASKTHRYQIWTTVVDWIHPDLKRIVIEYVDRIIFHRNYNAGTYQNDIALIEMKKDGNKKDCELPRSIPACVPWSPYLFQPNDTCIVSGWGREKDNERVFSLQWGEVKLISNCSKFYGNRFYEKEMECAGTYDGSIDACKGDSGGPLVCMDANNVTYVWGVVSWGENCGKPEFPGVYTKVANYFDWISYHVGRPFISQYNV
B6: Const. No. 28: HSA-GGSSGG-hCFI; E401A (enzyme)
chain: [not shown - about 600 residues]GGSSGGKVTYTSQEDLVEKKCLAKKYTHLSCDKVFCQPWQRCIEGTCVCKLPYQCPKNGTAVCATNRRSFPTYCQQKSLECLHPGTKFLNNGTCTAEGKFSVSLKHGNTDSEGIVEVKLVDQDKTMFICKSSWSMREANVACLDLGFQQGADTQRRFKLSDLSINSTECLHVHCRGLETSLAECTFTKRRTMGYQDFADVVCYTQKADSPMDDFFQCVNGKYISQMKACDGINDCGDQSDELCCKACQGKGFHCKSGVCIPSQYQCNGEVDCITGEDEVGCAGFASVTQEETEILTADMDAERRRIKSLLPKLSCGVKNRMHIRRKRIVGGKRAQLGDLPWQVAIKDASGITCGGIYIGGCWILTAAHCLRASKTHRYQIWTTVVDWIHPDLKRIVIEYVDRIIFHANYNAGTYQNDIALIEMKKDGNKKDCELPRSIPACVPWSPYLFQPNDTCIVSGWGREKDNERVFSLQWGEVKLISNCSKFYGNRFYEKEMECAGTYDGSIDACKGDSGGPLVCMDANNVTYVWGVVSWGENCGKPEFPGVYTKVANYFDWISYHVGRPFISQYNV
B7: Const. No. 29: HSA-GGSSGG-hCFI; E401F (enzyme)
chain: [not shown - about 600 residues]GGSSGGKVTYTSQEDLVEKKCLAKKYTHLSCDKVFCQPWQRCIEGTCVCKLPYQCPKNGTAVCATNRRSFPTYCQQKSLECLHPGTKFLNNGTCTAEGKFSVSLKHGNTDSEGIVEVKLVDQDKTMFICKSSWSMREANVACLDLGFQQGADTQRRFKLSDLSINSTECLHVHCRGLETSLAECTFTKRRTMGYQDFADVVCYTQKADSPMDDFFQCVNGKYISQMKACDGINDCGDQSDELCCKACQGKGFHCKSGVCIPSQYQCNGEVDCITGEDEVGCAGFASVTQEETEILTADMDAERRRIKSLLPKLSCGVKNRMHIRRKRIVGGKRAQLGDLPWQVAIKDASGITCGGIYIGGCWILTAAHCLRASKTHRYQIWTTVVDWIHPDLKRIVIEYVDRIIFHFNYNAGTYQNDIALIEMKKDGNKKDCELPRSIPACVPWSPYLFQPNDTCIVSGWGREKDNERVFSLQWGEVKLISNCSKFYGNRFYEKEMECAGTYDGSIDACKGDSGGPLVCMDANNVTYVWGVVSWGENCGKPEFPGVYTKVANYFDWISYHVGRPFISQYNV
B8: Const. No. 33: HSA-GGSSGG-hCFI; H554F (enzyme)
chain: [not shown - about 600 residues]GGSSGGKVTYTSQEDLVEKKCLAKKYTHLSCDKVFCQPWQRCIEGTCVCKLPYQCPKNGTAVCATNRRSFPTYCQQKSLECLHPGTKFLNNGTCTAEGKFSVSLKHGNTDSEGIVEVKLVDQDKTMFICKSSWSMREANVACLDLGFQQGADTQRRFKLSDLSINSTECLHVHCRGLETSLAECTFTKRRTMGYQDFADVVCYTQKADSPMDDFFQCVNGKYISQMKACDGINDCGDQSDELCCKACQGKGFHCKSGVCIPSQYQCNGEVDCITGEDEVGCAGFASVTQEETEILTADMDAERRRIKSLLPKLSCGVKNRMHIRRKRIVGGKRAQLGDLPWQVAIKDASGITCGGIYIGGCWILTAAHCLRASKTHRYQIWTTVVDWIHPDLKRIVIEYVDRIIFHENYNAGTYQNDIALIEMKKDGNKKDCELPRSIPACVPWSPYLFQPNDTCIVSGWGREKDNERVFSLQWGEVKLISNCSKFYGNRFYEKEMECAGTYDGSIDACKGDSGGPLVCMDANNVTYVWGVVSWGENCGKPEFPGVYTKVANYFDWISYFVGRPFISQYNV

Target: T1, human C4b (human, UniProt P0C0L5 20-1744)
T1 chain 1: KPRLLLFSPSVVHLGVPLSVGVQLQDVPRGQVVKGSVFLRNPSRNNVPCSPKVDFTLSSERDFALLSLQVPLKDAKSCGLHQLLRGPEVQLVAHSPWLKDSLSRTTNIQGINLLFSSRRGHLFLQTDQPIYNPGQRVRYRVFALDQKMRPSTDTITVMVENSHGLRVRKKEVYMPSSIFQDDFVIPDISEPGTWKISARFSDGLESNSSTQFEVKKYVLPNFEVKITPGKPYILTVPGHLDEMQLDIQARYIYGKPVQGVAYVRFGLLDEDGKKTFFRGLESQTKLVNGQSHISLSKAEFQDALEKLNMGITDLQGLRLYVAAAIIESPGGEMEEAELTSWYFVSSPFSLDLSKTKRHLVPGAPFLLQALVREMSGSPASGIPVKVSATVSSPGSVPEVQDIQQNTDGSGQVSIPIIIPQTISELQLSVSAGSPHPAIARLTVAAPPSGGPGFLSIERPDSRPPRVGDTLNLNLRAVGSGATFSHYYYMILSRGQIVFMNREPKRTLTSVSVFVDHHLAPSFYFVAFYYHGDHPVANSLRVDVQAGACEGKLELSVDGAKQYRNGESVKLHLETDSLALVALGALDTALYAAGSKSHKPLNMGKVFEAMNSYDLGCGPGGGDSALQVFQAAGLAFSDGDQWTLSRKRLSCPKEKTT
T1 chain 2: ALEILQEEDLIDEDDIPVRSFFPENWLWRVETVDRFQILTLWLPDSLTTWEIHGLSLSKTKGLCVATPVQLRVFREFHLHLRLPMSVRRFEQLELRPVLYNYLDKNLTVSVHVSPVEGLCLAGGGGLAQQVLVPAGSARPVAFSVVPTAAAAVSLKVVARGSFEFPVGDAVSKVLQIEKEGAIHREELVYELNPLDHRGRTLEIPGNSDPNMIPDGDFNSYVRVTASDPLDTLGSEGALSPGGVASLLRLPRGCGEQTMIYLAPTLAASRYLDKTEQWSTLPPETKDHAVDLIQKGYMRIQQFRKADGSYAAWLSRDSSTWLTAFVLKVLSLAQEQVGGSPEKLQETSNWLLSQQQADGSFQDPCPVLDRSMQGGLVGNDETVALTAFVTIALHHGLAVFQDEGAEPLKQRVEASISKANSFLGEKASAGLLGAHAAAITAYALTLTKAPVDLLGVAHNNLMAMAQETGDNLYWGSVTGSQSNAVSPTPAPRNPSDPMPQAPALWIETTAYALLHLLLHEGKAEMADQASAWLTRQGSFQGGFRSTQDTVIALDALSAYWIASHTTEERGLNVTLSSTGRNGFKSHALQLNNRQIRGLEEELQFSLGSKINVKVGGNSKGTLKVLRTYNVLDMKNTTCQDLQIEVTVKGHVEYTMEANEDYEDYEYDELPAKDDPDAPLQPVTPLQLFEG
T1 chain 3: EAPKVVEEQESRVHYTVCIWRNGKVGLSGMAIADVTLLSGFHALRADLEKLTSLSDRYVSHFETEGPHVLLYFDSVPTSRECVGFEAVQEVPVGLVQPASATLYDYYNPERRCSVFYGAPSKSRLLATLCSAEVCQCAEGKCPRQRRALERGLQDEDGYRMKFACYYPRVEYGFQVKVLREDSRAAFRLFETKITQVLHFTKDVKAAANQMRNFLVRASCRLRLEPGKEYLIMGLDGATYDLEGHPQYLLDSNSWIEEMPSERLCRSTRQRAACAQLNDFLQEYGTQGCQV
Test: cell-based or functional assay

Binder	C4c EC50 [nM]
B1	489
B2	240
B3	1210
B4	99.6
B5	47
B6	90.4
B7	210
B8	707
